Drawing on the supplement of paper PMC10670038, this text covers relative cell viability for 47 compounds.

Structures can show the parent of a compound that is named as a salt. ± gives the standard deviation of the averaged measurements. In all, about 2,000 compounds were measured (“relative cell viability vs DMSO, compound alone”: median about 1.1, lowest 2% from about 0.29 on). This is one part of the list.

This assay has as its system TE10. The assay is described as follows: relative cell viability vs DMSO, compound alone (fraction); TE10 is an esophageal squamous carcinoma line; higher = less cytotoxic. The settings on record: 2 µM; 48 h. The procedure:
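TE10 ESCC cells (1,000/well, 384-well plates) were treated with Selleck bioactive library compounds at 2 uM alone for 48 h. Viability was read by CellTiter-Glo and expressed relative to DMSO wells. Two technical replicates (A, B).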
For `C=CCN1CC[C@]23c4c5ccc(O)c4O[C@H]2C(=O)CC[C@@]3(O)[C@H]1C5` [Naloxone HCl Dihydrate], the relative cell viability came to 1.043 ± 0.0076.

The compound `C[C@@H]1CC[C@@]2(OC1)O[C@H]1C[C@H]3[C@@H]4CC=C5C[C@@H](O[C@@H]6O[C@H](CO)[C@@H](O[C@@H]7O[C@@H](C)[C@H](O)[C@@H](O)[C@H]7O)[C@H](O)[C@H]6O[C@@H]6O[C@@H](C)[C@H](O)[C@@H](O)[C@H]6O)CC[C@]5(C)[C@H]4CC[C@]3(C)[C@H]1[C@@H]2C` [Dioscin] displayed a relative cell viability of 0.189 ± 0.051.

With `Cc1cccc(Cc2c[nH]cn2)c1C` [Detomidine HCl], the relative cell viability was found to be 1.02 ± 0.025.

On to `N#CC(C#N)=Cc1ccc(O)c(O)c1`, for which the relative cell viability is 1.11 ± 0.1.

The compound `Cc1cccc(C)c1NC(=O)CN1CCCC1=O` [Nefiracetam] had a relative cell viability of 1.0421 ± 0.00054.

With `CN1CCCCC1Cn1cc(C(=O)c2cc([N+](=O)[O-])ccc2I)c2ccccc21` (configuration not stated), the relative cell viability was determined as 1.02 ± 0.024.

For the compound `O=c1ccc2cc(O[C@@H]3O[C@H](CO)[C@@H](O)[C@H](O)[C@H]3O)c(O)cc2o1` [Esculin], the relative cell viability stood at 1.12 ± 0.026.

`c1ccc2c(c1)Nc1ccccc1S2` [Phenothiazine] gave a relative cell viability of 1.14 ± 0.048.

In turn, `O=C1C=CC[C@@H]2[C@H]3CCCN4CCC[C@@H](CN12)[C@@H]34` [Sophocarpine] displayed a relative cell viability of 0.978 ± 0.059.

`CC(=O)O[C@H]1C[C@@H]2CC[C@@H]3[C@H](CC[C@@]4(C)[C@H]3C[C@H]([N+]3(C)CCCCC3)[C@@H]4OC(C)=O)[C@@]2(C)C[C@@H]1[N+]1(C)CCCCC1` [Pancuronium dibromide] had a relative cell viability of 1.08 ± 0.046.

Regarding `O=C(NCC1CCOCC1)c1cnc(Nc2ccc(Cl)cc2Cl)nc1C(F)(F)F`, the relative cell viability is 1.123 ± 0.0085.

Compound `C[C@]12CC[C@H](O)CC1=CC[C@@H]1[C@@H]2CC[C@]2(C)C(=O)CC[C@@H]12` [Dehydroepiandrosterone (DHEA)] showed a relative cell viability of 1.06 ± 0.05.

As for `c1ccc([C@@H]2C[C@H]2NC2CCNCC2)cc1`, the relative cell viability is 0.918 ± 0.14.

Compound `CC[C@H](C)[C@@H]([C@@H](CC(=O)N1CCC[C@H]1[C@H](OC)[C@@H](C)C(=O)N[C@H](C)[C@@H](O)c1ccccc1)OC)N(C)C(=O)[C@@H](NC(=O)[C@@H](NC)C(C)C)C(C)C` [Monomethyl auristatin E (MMAE)] displayed a relative cell viability of 0.7713 ± 0.0035.

In turn, `CC(C)OC(=O)[C@H](C)N[P@](=O)(CO[C@H](C)Cn1cnc2c(N)ncnc21)Oc1ccccc1` [Tenofovir Alafenamide (GS-7340)] yielded a relative cell viability of 1.11 ± 0.0036.

Turning to `O=[N+]([O-])c1ncc[nH]1` [Azomycin], the relative cell viability was 1.005 ± 0.0085.

As for `O=c1cccc2n1C[C@@H]1CNC[C@H]2C1` [Cytisine], the relative cell viability is 1.022 ± 0.0062.

`CCOC(=O)c1cncn1[C@H](C)c1ccccc1` [Etomidate] came in with a relative cell viability of 1.174 ± 0.0053.

`CCN1CCN(C(=O)Cc2ccc(Nc3ncc(F)c(Nc4ccc(C(=O)Nc5ccccc5Cl)cc4)n3)cc2)CC1` [Aurora A Inhibitor I] registered a relative cell viability of 0.7095 ± 0.0065.

Turning to `CN1CCc2cc3c(cc2C1C1OC(=O)c2c1ccc1c2OCO1)OCO3` (single isomer, unassigned; (+)) [(+)-Bicuculline], the relative cell viability is 1.12 ± 0.039.

The compound `CC(O)(CS(=O)(=O)c1ccc(F)cc1)C(=O)Nc1ccc(C#N)c(C(F)(F)F)c1` (configuration not stated) [Bicalutamide] came in with a relative cell viability of 1.291 ± 0.011.

`O=C(O)c1nn(Cc2ccc(Cl)cc2Cl)c2ccccc12` [Lonidamine] came in with a relative cell viability of 1.179 ± 0.00061.

Take `Cc1cc(C(C#N)c2ccc(Cl)cc2)c(Cl)cc1NC(=O)c1cc(I)cc(I)c1O` (configuration not stated) [Closantel]: the relative cell viability was 1.12 ± 0.019.

In turn, `CC(C)(C)c1cc(C=C(C#N)C#N)cc(C(C)(C)C)c1O` [Tyrphostin 9] displayed a relative cell viability of 0.323 ± 0.024.

Compound `CN(C)Cc1c[nH]c2ccccc12` [Gramine] returned a relative cell viability of 1.15 ± 0.025.

Compound `O=C(O)CCCc1ccc(N(CCCl)CCCl)cc1` [Chloroambucil] had a relative cell viability of 1.14 ± 0.012.

The compound `CC[C@@H](C(N)=O)N1CCCC1=O` [Levetiracetam] displayed a relative cell viability of 1.189 ± 0.0022.

Compound `COc1ccc(C(=O)N2CCCC2=O)cc1` [Aniracetam] displayed a relative cell viability of 1.19 ± 0.093.

On to `O=C(O[C@H]1C[C@H]2CC[C@@H](C1)[N+]21CCCC1)C(O)(c1ccccc1)c1ccccc1` [Trospium chloride], for which the relative cell viability worked out at 1.04 ± 0.13.

With `COc1cc([C@@H]2c3cc4c(cc3[C@H](O)[C@H]3COC(=O)[C@@H]23)OCO4)cc(OC)c1OC` [Picropodophyllin (PPP)], the relative cell viability is 0.985 ± 0.093.

`CN1CCC(c2c[nH]c3ccc(O)cc23)CC1` displayed a relative cell viability of 1.16 ± 0.025.

Consider `NC(=O)CN1CC(O)CC1=O` (configuration not stated) [Oxiracetam], for which the relative cell viability came out at 1.15 ± 0.024.

As to `CCNC(=O)C[C@@H]1N=C(c2ccc(Cl)cc2)c2cc(OC)ccc2-n2c(C)nnc21`, the relative cell viability was determined as 0.83653 ± 0.00018.

Compound `CC(C)=CCC[C@]1(C)C=Cc2c(O)c3c(c(CC=C(C)C)c2O1)O[C@]12C(=C[C@@H]4C[C@H]1C(C)(C)O[C@@]2(C/C=C(/C)C(=O)O)C4=O)C3=O` [Gambogic Acid] gave a relative cell viability of 0.0673 ± 0.0049.

`CN1c2ccccc2C(NCCCCCCC(=O)O)c2ccc(Cl)cc2S1(=O)=O` (configuration not stated) [Tianeptine sodium]: the relative cell viability was 1.31 ± 0.099.

In the case of `C[N+](C)(C)CCCCCCCCCC[N+](C)(C)C` [Decamethonium Bromide], the relative cell viability is 0.972 ± 0.035.

Turning to `O=C(O)CNC(=O)c1c(O)c2ccccc2n(Cc2ccccc2)c1=O`, the relative cell viability was found to be 1.09 ± 0.038.

`COc1cc(-n2c(=S)[nH]c3ccccc3c2=O)c(Cl)cc1Cl` [Mdivi-1] returned a relative cell viability of 1.11 ± 0.081.

Compound `CCCN1C[C@H](CSC)C[C@@H]2c3cccc4[nH]cc(c34)C[C@H]21` [Pergolide mesylate] had a relative cell viability of 1.06 ± 0.058.

`CC(=O)Nc1ccc(Cc2ccc(NC(C)=O)cc2)cc1` came in with a relative cell viability of 1.1 ± 0.026.

Consider `CC1=C(O)C(=O)C=C2C1=CC=C1[C@@]2(C)CC[C@@]2(C)[C@@H]3C[C@](C)(C(=O)O)CC[C@]3(C)CC[C@]12C` [Celastrol], for which the relative cell viability is 0.306 ± 0.0087.

Regarding `C[C@H]1CCC/C=C/[C@@H]2C[C@H](O)C[C@H]2[C@H](O)/C=C/C(=O)O1` [Brefeldin A], the relative cell viability was found to be 0.2497 ± 0.0017.

In the case of `Cc1cc(O)ccc1Cl` [Chlorocresol], the relative cell viability stood at 1.14 ± 0.047.

Turning to `c1cc2c(cc1[C@H]1OC[C@H]3[C@@H]1CO[C@@H]3c1ccc3c(c1)OCO3)OCO2` [Sesamin], the relative cell viability amounted to 1.09 ± 0.023.

The compound `NCCc1ccc(S(=O)(=O)F)cc1` displayed a relative cell viability of 1.15 ± 0.012.

For the compound `Fc1cc(F)c2c(c1)[C@H]1C=CC[C@H]1C(c1cccnc1)N2` (some centres not stated) [Golgicide A], the relative cell viability turned out to be 0.9811 ± 0.0014.

`CN1[C@@H]2CC[C@H]1C[C@@H](OC(=O)[C@H](CO)c1ccccc1)C2` [Hyoscyamine] had a relative cell viability of 1.13 ± 0.017.
